About 4,300 (8.3%) of roughly 52,000 compounds were called active. No stated cut-off is given here; in the data, active means survival mostly below about 52% (no sharp cut-off); inactive means mostly above about 56%. This is one part of the list.
System: DeltatarO mutant
Experiment: growth inhibition of S. aureus wild type versus tarO mutant, primary screen, teichoic acid synthesis inhibitors, RN4220, OD600 (AID 463173)
Conditions: OD600, 18 h, hits give low values, screened at 18.75 µg/mL (by protocol)

| Compound | survival |
| --- | --- |
| Cc1ccc(N2CCN(C(=O)c3c(C)oc4ncn(C)c(=O)c34)CC2)c(C)c1 | inactive: 83% |
| CCOC(=O)CCc1nn(C)c(=O)c2ccccc12 | inactive: 109% |
| Cc1ccc(NC(=O)CSc2nc3c(oc4ccccc43)c(=O)n2Cc2ccco2)cc1F | inactive: 74% |
| CC(N=Cc1cccc(O)c1O)c1ccccc1 (stereo not drawn) | inactive: 120% |
| Cc1nc(-n2nc(C)c(Cc3ccc(Cl)cc3)c2C)sc1C(=O)N1CCC(C)CC1 | inactive: 67% |
| CCCCC(=O)N1c2ccccc2C(C)(c2ccccc2)CC1(C)C (stereo not drawn) | active: -3% |
| Cc1cccc(CNC(=O)c2cnc3c(-c4cccc(C)c4)c(C)nn3c2C)c1 | active: 17% |
| O=C(OCC(=O)c1cccs1)c1cccc(C(=O)OCC(=O)c2cccs2)n1 | inactive: 89% |
| COC(=O)c1ccccc1NC(=S)N(Cc1ccco1)Cc1cc2cc(C)ccc2[nH]c1=O | inactive: 94% |
| Cn1c(=O)c2cc(S(=O)(=O)NC(Cc3ccccc3)C(=O)Nc3ccc(F)cc3)ccc2n(C)c1=O (stereo not drawn) | inactive: 69% |
| CC(=O)N1CCCc2cc(S(=O)(=O)N(C)CC(=O)Nc3cccc(Cl)c3C)ccc21 | inactive: 89% |
| CCc1ccc(S(=O)(=O)NCCc2cn3ccsc3n2)cc1 | inactive: 72% |
| O=C(c1ccccc1Cl)n1nc(-c2ccco2)nc1NCc1cccs1 | inactive: 54% |
| CC(C)OC(=O)c1c(NC(=O)c2cccc(C(F)(F)F)c2)sc2c1CCCC2 | inactive: 87% |
| O=C1CC(c2ccccc2)Sc2ccccc2N1Cc1ccccc1F (stereo not drawn) | inactive: 96% |
| COc1ccc(NC(=O)Cn2ccn(-c3ccc(F)c(F)c3)c(=O)c2=O)cc1Cl | inactive: 68% |
| COc1cccc(CNC(=O)c2sc3nc[nH]c(=O)c3c2C)c1 | inactive: 67% |
| COc1ccc(CNC(=O)CCC2N=C3c4ccccc4N=C(SCC(=O)NCCc4ccc(OC)c(OC)c4)N3C2=O)cc1 (stereo not drawn) | inactive: 69% |
| O=C1Nc2nc(=O)nc3[nH]c(=O)nc(n23)N1 | inactive: 97% |
| CC(=O)N1CCCc2cc(S(=O)(=O)N(C)CC(=O)Nc3ccc(C(C)C)cc3)ccc21 | inactive: 94% |

| Compound | survival |
| --- | --- |
| COc1ccc(CNC(=O)c2cc3c(=O)n(Cc4ccco4)ccc3nc2C)c(OC)c1 | inactive: 67% |
| CC(C)c1ccc(OCC(=O)Nc2ccc(S(=O)(=O)Nc3ncccn3)cc2)cc1 | inactive: 75% |
| Cn1cc(-c2cc3n(n2)CCC(=O)N3CCCC(=O)Nc2ccc(Cl)cc2)c2ccccc21 | inactive: 73% |
| CC1=NN(c2ccc(S(N)(=O)=O)cc2)C(=O)C1 | inactive: 75% |
| COC(=O)c1ccccc1NS(=O)(=O)c1cc2c3c(c1)CC(=O)N3CCC2 | active: 46% |
| O=C(Cn1c(=O)sc2ccccc21)Nc1ccc(O)cc1 | inactive: 70% |
| CCN(CC)S(=O)(=O)c1ccc2c(c1)N(CC(=O)Nc1ccc(Cl)cc1)C(=O)C1CCCN21 (stereo not drawn) | inactive: 84% |
| COc1ccc(C)c2sc(NC(=O)c3ccc(S(=O)(=O)N4CCOCC4)cc3)nc12 | inactive: 70% |
| COc1ccccc1CNC(=O)C(=O)NCC(c1ccco1)S(=O)(=O)c1ccc(F)cc1 (stereo not drawn) | inactive: 94% |
| Cc1c(C(C)(C)C)sc(=N)n1C | inactive: 99% |
| COc1cccc(N2CCN(C(=O)c3cnc4c(-c5ccc(F)cc5)c(C)nn4c3C)CC2)c1 | active: -5% |
| COc1ccc(C(=O)Oc2c(Sc3ccccc3)c(C)nn2-c2ccccc2)c(OC)c1 | inactive: 114% |
| Cc1cccc(C)c1OCCn1c(CCNC(=O)C2CCCCC2)nc2ccccc21 | inactive: 57% |
| C=CCn1c(=O)c(C2=NS(=O)(=O)c3ccccc3N2)c(O)c2ccccc21 | inactive: 77% |
| CCOc1ccc(NC(=O)c2cc(-c3ccc(C)c(F)c3)on2)c([N+](=O)[O-])c1 | inactive: 52% |
| Cc1ccc(-c2noc(C3CCCN(C(=O)c4ccccc4)C3)n2)o1 (stereo not drawn) | inactive: 85% |
| O=c1oc2cc(Br)ccc2n1CO | inactive: 105% |
| CCCCN1C(=O)C(O)(CC(=O)c2ccc(CC)cc2)c2cc(Br)ccc21 (stereo not drawn) | active: 32% |
| CCCN(C(=O)c1cc2c(=O)oc3ccc(C)cc3c2s1)c1ccc(OCC)cc1 | inactive: 48% |
| CCSc1nc(-c2cccc(Cl)c2)nc2c1Cc1c(CO)cnc(C)c1O2 | inactive: 116% |

| Compound | survival |
| --- | --- |
| COc1cccc(CNC(=O)Cn2nc(C)n3c(cc4cc(C)ccc43)c2=O)c1OC | inactive: 105% |
| COc1ccc(-c2nc3ccccc3n2Cc2ccccc2)cc1 | active: -1% |
| Cc1c(Cl)ccc2sc(N3CCN(C(=O)CCS(=O)(=O)c4ccc(F)cc4)CC3)nc12 | active: 0% |
| COc1cccc(C(=O)Nc2nc(-c3nnn(-c4ccccc4C(F)(F)F)c3C)ns2)c1 | inactive: 87% |
| CCOc1ccc2nc(N(Cc3cccnc3)C(=O)c3cccs3)sc2c1 | inactive: 83% |
| COc1cccc(-c2nc(Cn3c(=O)cc(C)c4c(C)nn(-c5ccccc5)c43)c(C)o2)c1OC | inactive: 68% |
| CC1=C(C(=O)Nc2ccccc2)C(c2ccccn2)n2nc(SCc3ccccc3)nc2N1 (stereo not drawn) | inactive: 68% |
| Cc1ccc2c(c1)C(c1ccccc1)N(C(=O)COc1ccc(Cl)cc1Cl)CC(=O)N2 (stereo not drawn) | active: 49% |
| Cc1ccc(-n2nc(C)c3c(C(=O)Nc4ccccc4C(F)(F)F)cc(C)nc32)cc1 | inactive: 95% |
| N#CCOC(=O)c1cc(-c2ccc(C=C(C#N)C#N)o2)ccc1Cl | inactive: 99% |
| CCOC(=O)N1c2ccccc2Sc2ccccc21 | inactive: 98% |
| O=C(COc1ccccc1Cl)OCc1cc(=O)n2nc(-c3cccs3)sc2n1 | inactive: 66% |
| CC1(C)CC(CC(N)=O)(c2ccccc2)CCO1 (stereo not drawn) | inactive: 89% |
| Cc1ccc(CNC(=O)Cc2c(C)c3cc4c(C)coc4cc3oc2=O)cc1 | inactive: 72% |
| Cc1ccccc1NC(=S)N1CCC(NC(=O)C(C)(C)C)CC1 | inactive: 92% |
| CCOC(=O)c1c(NC(=O)c2nc(SCC)ncc2Cl)sc(C(C)=O)c1C | inactive: 75% |
| CCOC(=O)c1ccc(N2CCN(c3cccc(OC)c3)CC2)c(NC(=O)Nc2ccc(OCC)cc2)c1 | active: -5% |
| O=C(O)c1ccc(CNCc2ccc(Cl)cc2)s1 | inactive: 97% |
